The results in this text go back to PubChem BioAssay AID493035 (The Scripps Research Institute Molecular Screening Center, 2011).

Structures are written as SMILES. Several values for one entry are separate records, joined by “and”; a condition that tells them apart may be missing. Equal entries are not always repeated. Among all 2,000 compounds or so, about 45 (2%) were called active.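 Rule for the calls: active = inhibition above the mean of all tested compounds plus 3 SD (cut at about 49% in these data); inactive = the rest.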 Some of the results follow. Where a SMILES comes first, the peptide text is derived from it. [ ]: non-standard residue; d: D form. ξ: configuration not given here. ξV = CC(C)C(N)C(=O)O

The target in this test is Perilipin-5 (Homo sapiens) + 1-acylglycerol-3-phosphate O-acyltransferase ABHD5 (Homo sapiens) (UniProt Q00G26+Q8WTS1). Description: blockers of ABHD5 binding to perilipin-5 – cell lysate, split luciferase complementation, luminescence, NIH validation set, pilot screen (AID 493035).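 Note: 0% = DMSO only wells while the 100% control is not stated.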 The following applies: split G. princeps luciferase complementation, lysates, 4 h; at 7.9 µM, hits give high values.
Chain of UniProt Q00G26 (Q00G26 whole entry, looked up): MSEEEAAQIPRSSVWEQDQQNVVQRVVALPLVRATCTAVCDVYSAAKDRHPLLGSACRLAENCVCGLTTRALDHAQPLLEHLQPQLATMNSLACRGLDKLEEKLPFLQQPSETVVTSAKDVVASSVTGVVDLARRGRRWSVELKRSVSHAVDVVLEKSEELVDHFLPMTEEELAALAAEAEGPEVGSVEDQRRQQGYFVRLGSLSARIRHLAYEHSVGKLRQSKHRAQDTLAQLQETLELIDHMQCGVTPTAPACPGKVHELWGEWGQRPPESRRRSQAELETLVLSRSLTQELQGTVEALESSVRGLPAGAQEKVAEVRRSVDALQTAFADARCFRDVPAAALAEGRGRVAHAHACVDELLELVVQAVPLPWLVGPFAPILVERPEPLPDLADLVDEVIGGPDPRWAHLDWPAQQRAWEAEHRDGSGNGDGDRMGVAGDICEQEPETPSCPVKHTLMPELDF
Chain of UniProt Q00G26 (Q8WTS1 whole entry, looked up): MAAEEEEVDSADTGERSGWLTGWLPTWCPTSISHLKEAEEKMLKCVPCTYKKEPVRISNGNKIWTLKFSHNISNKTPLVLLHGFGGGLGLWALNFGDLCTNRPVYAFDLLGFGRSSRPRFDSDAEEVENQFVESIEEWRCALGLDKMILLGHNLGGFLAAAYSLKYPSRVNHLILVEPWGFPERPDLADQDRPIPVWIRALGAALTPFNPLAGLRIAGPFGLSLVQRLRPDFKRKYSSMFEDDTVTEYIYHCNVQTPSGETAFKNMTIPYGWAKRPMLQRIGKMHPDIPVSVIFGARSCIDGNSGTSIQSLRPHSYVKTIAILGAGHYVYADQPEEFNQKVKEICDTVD
As to `CCC(C)n1ncn(-c2ccc(N3CCN(c4ccc(OCC5COC(Cn6cncn6)(c6ccc(Cl)cc6Cl)O5)cc4)CC3)cc2)c1=O` (centres undefined), the inhibition is inactive: 7.17%.

As for `Cc1cccc(Nc2ccccc2C(=O)O)c1C`, the inhibition was inactive: -3.59%.

As for `CCOc1ncnc2c1[nH]c1ccccc12`, the inhibition is inactive: -0.72%.

In the case of `CC1(C)S[C@@H]2[C@H](NC(=O)Cc3ccccc3)C(=O)N2[C@H]1C(=O)O`, the inhibition was inactive: 0.2%.

Turning to `Cc1cc(=O)c2c(O)c(O)ccc2o1`, the inhibition is inactive: -3.3%.

Take `CCCCCCCC(=O)OCC(=O)[C@@]1(O)CC[C@H]2[C@@H]3CCC4=CC(=O)CC[C@]4(C)[C@H]3[C@@H](O)C[C@@]21C`: the inhibition was inactive: -10.7%.

For `COc1cc(OC)c(-c2nc3cnccc3n2C)cc1OC`, the inhibition was inactive: -12.5%.

As to `COc1cccc(OCC(O)CO)c1` (centres undefined), the inhibition is inactive: -6.51%.

In the case of `CCOC(=O)N1c2ccccc2C=CC1OCC` (centres undefined), the inhibition is inactive: 5.45%.

In the case of `CC(C)CN1CCN(Cc2cccn2-c2ccccn2)CC1CCO` (centres undefined), the inhibition was inactive: -3.71%.

For the molecule `CCC(=O)c1ccc(OCc2ccc(C(=O)OC)cc2)cc1`, the inhibition is inactive: -2.89%.

Take `COc1cc(/C=C/C(=O)CC(=O)/C=C/c2ccc(O)c(OC)c2)ccc1O`: the inhibition was inactive: 47.6%.

As to `CC1(C)C(C=C(Cl)Cl)C1C(=O)N1CCN(Cc2ccccc2)CC1` (centres undefined), the inhibition is inactive: -7.72%.

In the case of `CNC(=O)Oc1ccc2c(c1)[C@]1(C)CCN(C)[C@@H]1N2C`, the inhibition was inactive: -11.1%.

As to `CC12CN3CC(C)(CN(C1)C3c1ccc(Cl)cc1Cl)C2=O` (centres undefined), the inhibition was inactive: -5.63%.

With `Cc1cc(O)c(C(=O)Cc2csc(C)n2)c(O)c1`, the inhibition is inactive: 4.2%.

As to `O=c1[nH]cnc2[nH]ncc12`, the inhibition is inactive: 5.6%.

With `CN(C)C(=O)Oc1cccc([N+](C)(C)C)c1`, the inhibition is inactive: -4.57% and inactive: -0.44%.

For the molecule `CN1CCC(OC(c2ccccc2)c2ccccc2)CC1`, the inhibition was inactive: -7.92%.

With `NC(CO)C(=O)NNCc1ccc(O)c(O)c1O` (centres undefined), the inhibition is inactive: 8.62%.

On to `CN(C)CCCN1c2ccccc2CCc2ccccc21`, for which the inhibition was inactive: -8.22%.

With `COc1ccc2cc(C(=O)OC(C)C)sc(=O)c2c1OC`, the inhibition is inactive: 2.52%.

For the molecule `C[C@H]1O[C@H]1P(=O)(O)O`, the inhibition is inactive: 0.56%.

`CCOC(=O)c1ccc(N2C(=O)C(CC(N)=O)N(CCc3ccc(OC)c(OC)c3)C2=S)cc1` (centres undefined): the inhibition is inactive: 5.64%.

Take `COc1ccc2[nH]cc(CCNC(=O)C3CCCNC3=O)c2c1` (centres undefined): the inhibition is inactive: -8.85%.

In the case of `CC1COc2c(N3CCN(C)CC3)c(F)cc3c(=O)c(C(=O)O)cn1c23` (centres undefined), the inhibition was inactive: -4.62%.

Regarding `CCN(CC)C(=O)c1sc(NC(=O)c2c(OC)cccc2OC)c(C#N)c1C`, the inhibition is inactive: -4.18%.

On to `O=C(O)/C=C/c1cnc[nH]1`, for which the inhibition is inactive: -5.36%.

Turning to `NCc1ccccc1COc1ccccc1`, the inhibition is inactive: 1.14%.

In the case of `COCCCNc1nc2c([nH]1)c(=O)[nH]c(=O)n2C`, the inhibition was inactive: -7.06%.

In the case of `CC(=O)OCC[N+](C)(C)C`, the inhibition is inactive: -7.72% and inactive: -5.15%.

On to `CC[n+]1ccc2cc(OC)c(OC)cc2c1Cc1ccc(OC)c(OC)c1`, for which the inhibition is inactive: -6.43%.

In the case of `O=C(/C=C/c1ccc2c(c1)OCO2)c1ccccn1`, the inhibition is active: 55.7%.

As to `Cn1c(=O)c(C(=O)NCCO)c(O)c2ccccc21`, the inhibition was inactive: -4.23%.

Take `CN1C(=O)C(O)(CC(=O)/C=C/C=C/c2ccccc2)c2ccccc21` (centres undefined): the inhibition is inactive: 10.8%.

On to `Cn1cc(C2N3CC4(C)CN2CC(C)(C3)C4=O)c2ccccc21` (centres undefined), for which the inhibition was inactive: -3.41%.

For the molecule `OCCN(CCO)c1ccc2ccccc2c1`, the inhibition was inactive: -10.7%.

For the molecule `CN(C)[C@@H]1C(=O)C(C(N)=O)=C(O)[C@@]2(O)C(=O)C3=C(O)c4c(O)ccc(Cl)c4[C@@H](O)[C@H]3C[C@@H]12`, the inhibition is inactive: 0.22%.

`CC(C)(C)C(=O)NC(=S)NNC(=O)c1ccncc1`: the inhibition is inactive: -6.37%.

`CC(C)Oc1cccc(C(=O)N2CCCC2)c1`: the inhibition was inactive: -2.57%.

For `O=S(=O)(CCc1nc2ccccc2[nH]1)c1ccc(Cl)cc1`, the inhibition was inactive: -10.2%.

On to `C[N+](C)(C)CCOP(=O)([O-])OC[C@H](O)CO`, for which the inhibition is inactive: 1.67%.

Turning to `CC(=O)NC(Cc1c[nH]c2ccccc12)C(=O)N/N=C/c1ccccc1` (centres undefined), the inhibition is inactive: -0.25%.

`CN(C)C(=O)CCCCCCCCC(=O)N(C)C`: the inhibition is inactive: -2.31%.

On to `Cc1nc(NCc2ccco2)c(C#N)c2c1COC(C)(C)C2`, for which the inhibition was inactive: -11.6%.

With `COc1ccc(-c2nc(NC(C)=O)sc2-c2ccc(OC)cc2)cc1`, the inhibition is inactive: 2.96%.

As for `CC(C)(C)NCC(O)COc1cccc2c1C[C@H](O)[C@H](O)C2` (some centres undefined), the inhibition was inactive: 0.05%.

For the molecule `COCCc1ccc(OCC(O)CNC(C)C)cc1` (centres undefined), the inhibition was inactive: -9.46%.

Turning to `O=C1CN(O)C=C2N=c3ccccc3=C2N1c1ccc([N+](=O)[O-])cc1`, the inhibition is inactive: 6.34%.

`CC(=O)NC(C(=O)NCC(N)=O)C(C)C` (centres undefined) (Ac-[ξV]-Gly-NH2): the inhibition was inactive: -1.32%.

Consider `CC(C)Cc1ccc(C(C)C(=O)O)cc1` (centres undefined), for which the inhibition was inactive: 0.26%.

For `CC(C)NC(=O)c1ccc(C(C)C)cc1`, the inhibition is inactive: 8.97%.

Regarding `O=C1C2C3C=CC(C4CC34)C2C(=O)N1/N=C/c1ccc(-c2ccc([N+](=O)[O-])cc2)o1` (centres undefined), the inhibition was inactive: -2%.

`c1ccc(Nc2cccc3c(Nc4ccccc4)cccc23)cc1`: the inhibition is inactive: 8.61%.

Turning to `COc1cc(C(=O)Nc2ccc(N(C)C)cc2)c([N+](=O)[O-])cc1OC`, the inhibition was inactive: 14.1%.

Turning to `O=C1[C@@H]2CSCN2C(=O)CN1Cc1ccc(F)cc1`, the inhibition was inactive: -11.8%.

Consider `C=C(C)C(=O)Nc1ccc(NC(C)C)cc1`, for which the inhibition was inactive: 6.38%.

For the molecule `C#C[C@]1(O)CC[C@H]2[C@@H]3CCC4=C(CCC(=O)C4)[C@H]3CC[C@@]21C`, the inhibition is inactive: 5.58%.

Take `CC(C)(C)NCC(O)c1cc(O)cc(O)c1` (centres undefined): the inhibition is inactive: -1.72%.

Turning to `COc1ccc(Cc2nc(-c3ccc(Br)cc3)no2)cc1`, the inhibition was inactive: -14.7%.

Regarding `CCc1oc2ccccc2c1C(=O)c1cc(Br)c(O)c(Br)c1`, the inhibition was active: 50.7%.

As to `NCCCC(N)(C(=O)O)C(F)F` (centres undefined), the inhibition is inactive: -8.38%.

Take `COc1cc(/C=C(\C#N)C(=O)N2CCc3ccccc32)ccc1O`: the inhibition is active: 50.3%.

As for `Cc1ccccc1C(OCCN(C)C)c1ccccc1` (centres undefined), the inhibition is inactive: -0.63%.
